# Reference: PMC4336329 (PLoS ONE, 2015)
# About 14,000 (4.5%) of roughly 310,000 compounds showed an effect of 50% or more. The effect is printed as a negative number. This is one part of the list.
# Target: human ether-à-go-go-related gene (hERG) potassium channel (human, UniProt Q12809)
# Assay: primary screen, population patch clamp on CHO cells stably expressing hERG
# 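Further: peak tail current of the secondary pulse compared with the same well before compound.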
# Sequence of human ether-à-go-go-related gene (hERG) potassium channel (Q12809 whole entry, looked up): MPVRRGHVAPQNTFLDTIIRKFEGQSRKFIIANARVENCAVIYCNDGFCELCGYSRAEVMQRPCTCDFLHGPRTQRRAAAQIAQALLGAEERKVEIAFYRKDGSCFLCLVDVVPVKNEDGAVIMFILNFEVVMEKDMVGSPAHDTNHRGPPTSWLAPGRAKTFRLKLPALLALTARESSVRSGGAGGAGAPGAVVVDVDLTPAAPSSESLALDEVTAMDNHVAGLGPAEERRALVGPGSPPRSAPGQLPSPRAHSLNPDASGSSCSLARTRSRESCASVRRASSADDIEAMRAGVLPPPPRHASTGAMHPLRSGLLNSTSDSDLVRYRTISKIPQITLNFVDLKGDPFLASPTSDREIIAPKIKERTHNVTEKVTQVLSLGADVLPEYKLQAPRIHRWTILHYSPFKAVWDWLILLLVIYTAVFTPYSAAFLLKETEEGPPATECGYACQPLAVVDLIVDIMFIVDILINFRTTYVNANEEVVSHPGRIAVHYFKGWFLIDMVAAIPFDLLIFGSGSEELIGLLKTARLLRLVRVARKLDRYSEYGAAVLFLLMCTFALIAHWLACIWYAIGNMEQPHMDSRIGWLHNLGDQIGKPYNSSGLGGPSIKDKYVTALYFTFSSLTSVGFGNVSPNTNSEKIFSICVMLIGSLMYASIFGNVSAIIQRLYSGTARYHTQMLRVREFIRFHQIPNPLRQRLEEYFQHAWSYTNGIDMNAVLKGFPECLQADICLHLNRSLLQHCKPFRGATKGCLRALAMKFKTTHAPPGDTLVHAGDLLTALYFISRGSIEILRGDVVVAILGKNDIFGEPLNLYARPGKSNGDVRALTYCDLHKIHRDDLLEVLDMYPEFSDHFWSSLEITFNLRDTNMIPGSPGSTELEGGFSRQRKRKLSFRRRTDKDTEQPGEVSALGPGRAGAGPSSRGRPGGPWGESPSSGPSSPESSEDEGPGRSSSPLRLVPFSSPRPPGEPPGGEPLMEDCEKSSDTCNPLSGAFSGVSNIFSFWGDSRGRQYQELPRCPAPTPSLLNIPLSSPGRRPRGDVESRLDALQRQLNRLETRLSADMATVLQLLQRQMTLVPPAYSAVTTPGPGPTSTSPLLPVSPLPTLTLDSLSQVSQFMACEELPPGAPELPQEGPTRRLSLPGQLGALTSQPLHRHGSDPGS
row,Compound,"hERG current change (%, negative = inhibition) at 10uM [%]"
1,C#CCN1C(=O)C(O)(CC(=O)c2ccc3c(c2)OCCO3)c2ccccc21 (stereo not shown),8.8
2,Cc1cc(C)n(CC(C)NCc2cn[nH]c2-c2ccc(C)c(C)c2)n1 (stereo not shown),-35.7
3,COc1ccccc1C(=O)COC(=O)c1c(-c2ccccc2)noc1C,-31.3
4,Cl.c1ccc2c(c1)N1CCCN=C1N2CCN1CCCCC1,-62.8
5,Cc1cc(=O)oc2cc(OCC(O)CN3CCc4ccccc4C3)ccc12 (stereo not shown),-31.7
6,Cc1cc2cc(CNC(=O)C3CCCC3)ccc2n1C,2.82
7,COc1ccc(C2CC(c3cccs3)n3nc(N)nc3N2)cc1 (stereo not shown),-36.6
8,CC(C)c1nnc(NC(=O)CCC(=O)N2CCC(Cc3ccccc3)CC2)s1,-8.82
9,CCOc1cc(OCC)nc(S(C)(=O)=O)n1,-0.891
10,Cc1cc(C(=O)Nc2cccc(-c3ccc(N4CCOCC4)nn3)c2)ccc1[N+](=O)[O-],-38.5
11,O=S(=O)(NCC1CCCO1)c1ccc(Cl)nc1 (stereo not shown),-2.03
12,CCOc1cc(CNc2ncc(-c3ccc(OC)cc3)n2C)ccc1O.O=C(O)C(=O)O,-48.3
13,O=C(Nc1cccc2cccnc12)C1CCCC1,-27.6
14,O=C1C(NS(=O)(=O)c2cccs2)=C(N2CCN(c3ccccc3)CC2)C(=O)c2ccccc21,12.3
15,O=C(c1cc(Cl)nc2ccccc12)N1CCN(Cc2ccc3c(c2)OCO3)CC1,-37.9
16,COc1ccccc1CN1C(=O)CNC1=S,8.84
17,CN1CCN(c2ccc([N+](=O)[O-])cc2C(=O)c2ccc(Br)cc2)CC1,-69.5
18,COc1ccc(Oc2nccc(-c3ccccc3)c2C#N)cc1,-7.35
19,Cc1c(NC(=O)c2cc(-c3ccc(O)cc3)on2)c(=O)n(-c2ccccc2)n1C,-11.3
20,NC(=O)c1c(NC(=O)c2cccc(N3C(=O)CCC3=O)c2)sc2c1CCCCC2,8.13
21,Cc1c(Cl)cccc1NC(=O)CNC(=O)C1CCN(C(=O)Nc2ccccc2)CC1,13.6
22,Cc1ccc(OCCC(=O)Nc2ccc(F)c(Cl)c2)cc1,5.65

row,Compound,"hERG current change (%, negative = inhibition) at 10uM [%]"
1,Cc1ccc(N2CCN(/N=C/C(Cl)=C/c3ccccc3)CC2)cc1,-5.13
2,CSc1sc(C)cc1C=O,-1.02
3,COc1ccc(C(=O)COC(=O)C2CCC(=O)N2)cc1 (stereo not shown),10.6
4,CC(C)(CC(=O)O)CC(=O)N1CCN(c2cc(C(F)(F)F)nc3ccccc23)CC1,21.8
5,CCS(=O)(=O)c1ccc(O)c(NC(=O)c2cc(OC)c(OC)c(OC)c2)c1,7.36
6,COc1ccccc1OCCSc1nc(N)cc(N)n1,5.67
7,Cc1cccc(Nc2ncnc3nc[nH]c23)c1,-22.9
8,C/C=C/c1ccc(OCC(=O)NCc2ccccc2OC)c(OC)c1,-21.9
9,Cc1cc(NC(=O)c2ccc3c(c2)C(=O)N(c2cccc(C)c2C)C3=O)no1,11.1
10,Cc1nc(NC(=O)C23CCC(C)(C(=O)O2)C3(C)C)sc1C (stereo not shown),-2.51
11,CCCCn1c(SCC(=O)/C(C#N)=C(\C)N)nc2ccccc2c1=O,-1.82
12,CCOP(=O)(OCC)c1nc(-c2cccc3ccccc23)oc1NCc1ccc(OC)cc1,2.77
13,CC(=O)OCC1(C)CN(c2ccccc2)NC1=O (stereo not shown),13.7
14,COc1ccc(CCNC(=O)C2CCCN2C(=O)Nc2ccccc2)cc1OC (stereo not shown),14.9
15,COc1cc(C2=NOC(C(=O)Nc3cccnc3)C2)cc(OC)c1OC (stereo not shown),9.72
16,CCN(Cc1ccccc1)S(=O)(=O)c1ccc(C(=O)N(CCCN(C)C)c2nc3c(C)c(C)ccc3s2)cc1.Cl,-3.58
17,Cn1c(=O)c2cc(S(=O)(=O)NC(Cc3ccccc3)C(=O)NCc3ccco3)ccc2n(C)c1=O (stereo not shown),-33.8
18,CC1CC(C)CN(c2cc(=O)n(Cc3ccc(F)cc3)c(=O)[nH]2)C1 (stereo not shown),4.83
19,CCOC(=O)NC(=O)CSc1nc(C)cc(C(F)(F)F)c1C#N,-19.8
20,CCn1cc(SCC(=O)NCc2ccc3c(c2)OCO3)c2ccccc21,-13.9
21,CN(Cc1nccn1C)C(=O)CCc1nnc(CCC2CCCCC2)o1,-23.6
22,Cn1cnnc1SCCn1c(N2CCCCC2)nc2c1c(=O)[nH]c(=O)n2C,9.22

row,Compound,"hERG current change (%, negative = inhibition) at 10uM [%]"
1,Cc1ccc(-c2nnc(N3CCN(c4ccccn4)CC3)c3ccccc23)cc1,-46.3
2,O=C1CNC(=S)N1Cc1ccccc1,33
3,Cc1ccc(NC(=O)C2CCN(C(=O)c3cccs3)CC2)c(C)c1,2.55
4,O=C1N[C@H](Cc2ccccc2)C(=O)N2[C@@H]3[C@H](C[C@@H]12)c1ccccc1N3OOSc1ccccc1,-38.9
5,O=C(c1cc2c(F)cccc2s1)N1CCCC1,37.2
6,CCCN(CC1CC1)C(=O)CCc1nnc(C(OC)c2ccccc2)o1 (stereo not shown),-4.58
7,Cc1nc2ccc(C(=O)N(C)CC3CCCN(CCc4ccc(Cl)cc4)C3)cc2[nH]1 (stereo not shown),-61.2
8,CC1CCC(NC(=O)C(NC(=O)c2ccccc2)C(C)C)CC1 (stereo not shown),-4.71
9,O=C(N/N=C/c1ccc(N2CCOCC2)s1)c1ccc(NS(=O)(=O)c2cccs2)cc1,9.21
10,O=C(NCc1ccccc1)c1ccc(CS(=O)(=O)c2ccccc2)o1,-13.7
11,COc1cc(NC(=O)c2cc(-c3ccccc3Cl)on2)cc(OC)c1OC,-35.9
12,CCC(CO)Nc1ncc([N+](=O)[O-])cc1C#N (stereo not shown),-16.3
13,Cc1cc(F)c(F)c(C(=O)N2CCOCC2)c1,20.2
14,Cc1ccc(-n2ncc3c(=O)n(CC(=O)N4CCCCCC4)cnc32)cc1,-5.37
15,CCCc1cc(=O)[nH]c(SCC(=O)Nc2ccc(Cl)c(S(=O)(=O)N3CCOCC3)c2)n1,-0.519
16,Cc1cc(F)ccc1S(=O)(=O)N1CCCOC1CNC(=O)C(=O)NCCC1=CCCCC1 (stereo not shown),13.3
17,Cc1ccccc1-n1c(O)c(/C=C2/C(c3ccccc3)=Nc3ccccc32)c(=O)[nH]c1=O,-11.4
18,COc1ccc(C(=O)Oc2ccc(N(C)S(=O)(=O)c3ccccc3)cc2)cc1[N+](=O)[O-],-14.6
19,O=C(Cn1nnc(-c2ccccc2)n1)N/N=C/c1cc([N+](=O)[O-])ccc1O,-12.1
20,ClCC1NCC(c2ccccc2Cl)c2c1[nH]c1ccccc21 (stereo not shown),0.482
21,COCCN(C(=O)Cc1cccs1)C(C(=O)NCc1ccc(OC)cc1)c1ccc(OC)cc1 (stereo not shown),-47.6
22,Cc1nn(Cc2ccc(C(=O)N/N=C/c3ccncc3)o2)c(C)c1Cl,-49.1

row,Compound,"hERG current change (%, negative = inhibition) at 10uM [%]"
1,CCC(=O)N1CCN(c2nc3ccccc3s2)CC1,-16.8
2,CC(=O)NC1C(OCc2ccccc2)OC2COC(C)(C)OC2C1O (stereo not shown),18.3
3,CCOC(=O)C1(C(=O)O)NC(=O)CC1c1ccccc1 (stereo not shown),-0.636
4,CN1CCN(Cc2ccc(OCc3ccccc3)cc2)CC1,-20.5
5,COc1cc(CCCN2C(N)=NC[C@@H]2Cc2ccc(O)cc2)cc(OC)c1OC,22.9
6,Cc1nn2c(=O)c(NC(=O)c3ccc(F)cc3)cnc2s1,16.6
7,O=C(NC1=NCCS1)C12CC3CC(C1)CC(C(=O)NC1=NCCS1)(C3)C2,21.9
8,CC(C)C(=O)NC(c1ccco1)c1ccc2cccnc2c1O (stereo not shown),-1.83
9,CCOC(=O)c1cnc(-n2nc(C)cc2C)nc1NNc1nc(C)cc(C)n1,2.99
10,COc1ccc(C(C#N)N2CCC(c3ccccc3)=N2)cc1OC (stereo not shown),7.77
11,Cc1cc(C)c(NC(=O)CNC(=O)c2cc(C3CC3)nn2-c2ccccc2)c(C)c1,-4.74
12,O=C(Nc1ccon1)Nc1cc(Cl)ccc1Cl,5.01
13,Clc1ccc(-c2nnc(-c3ccc(Br)o3)o2)c(Cl)c1,-0.684
14,CC(=O)C(C)Oc1ncn(-c2ccccc2)n1 (stereo not shown),8.73
15,Cc1cccc(C(=O)Nc2ccc(N3CCN(c4ccc(C(F)(F)F)cn4)CC3)nc2)c1,11.7
16,COCCN(C(=O)Cc1cccs1)c1nnc(-c2cccnc2)s1,0.165
17,C/C(=N/NC(=O)CNC(=O)CCc1ccccc1)c1ccc(Cl)cc1,-12.3
18,O=[N+]([O-])c1cc([N+](=O)[O-])c2nonc2c1Nc1ccc(O)cc1,-56.9
19,COc1ccccc1C(=O)COC(=O)c1ccc(-n2cnnn2)cc1,-2
20,COc1ccc(NC(=O)N2CCCC(c3nc(-c4ccc(F)cc4)no3)C2)cc1 (stereo not shown),-20.3
21,Nc1nc(SCC(=O)c2cc3ccccc3o2)n[nH]1,-7.14
22,O=C(CCc1ccccc1)NNC(=O)c1ccc(Br)cc1,8.17
